The values that follow come from publication PMC12040169 (PLOS Biology, 2025).

The list shows a part of the results.

The subject of the test is T1, C. trachomatis L2/434/Bu expressing GFP (CTL2-GFP).
T1 construct: L2/434/Bu GFP intracellular growth in HeLa cells
Also noted: species or system HeLa; C. trachomatis total inclusion area by high-content imaging, normalised to DMSO. The following applies: total inclusion area; 28.5 h, 10 µM; inhibitor. The procedure, abridged:
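Following bulk GFP and resorufin fluorescence reads, infected cells were fixed, Hoechst-stained and imaged on a high-content platform. Inclusion total area and number per well served as growth proxies; nuclei counts indicated host viability. MICs were derived as for the fluorescence assay.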
Regarding `C(=N\c1ccc(-c2nc3ccc(/N=C/c4ccncc4)cc3[nH]2)cc1)/c1ccncc1` [CBK261681], the “% of control remaining” value was 84.2748.
In the case of `Cc1ccc(NC(=O)Cn2nc(C)c([N+](=O)[O-])c2C)cc1Cl` [CBK268336], the “% of control remaining” value came out at 104.257.
For the compound `O=C(O)c1cc(NC(=O)c2cccc(Oc3ccc([N+](=O)[O-])cc3)c2)cc(C(=O)O)c1` [CBK263528], the “% of control remaining” value is 105.293.
As for `CC(=O)Nc1ccc(Oc2c(F)c(F)c(/C=C/CN3CCOCC3)c(F)c2F)cc1` [CBK269302C], the “% of control remaining” value was 93.8021.
In the case of `Cn1ccnc1C1(O)CC2CCC(C1)N2C(=O)c1ccc(F)cc1` (stereo not drawn) [CBK284086], the “% of control remaining” value came to 61.4472.
With `CCc1cnc(CN(C)C2CCN(Cc3cccc(C(N)=O)c3)C2)o1` (stereo not drawn) [CBK305357], the “% of control remaining” value turned out to be 83.2085.
For `CNC(=O)c1nn(CCCc2ccc(OC)cc2)c2ccccc12` [CBK105842] the value was 50.5071; for `COc1cc([C@@]23CC[C@@H](NC(=O)Nc4cc(F)ccc4F)C[C@@H]2N(C)CC3)ccc1OC(F)F` [CBK073834], 51.9644.
Regarding `Cc1ccc2nc(NC(=O)COc3ccccc3)sc2c1` [CBK287335], the “% of control remaining” value came to 102.234.
`COc1cc(-c2nnc(NC(C)=O)o2)cc(OC)c1OC` [CBK287698]: the “% of control remaining” value was found to be 85.8427.
For `CCOc1ccc(N(Cc2cc3cc(C)ccc3nc2O)C(=O)c2ccccc2OC)cc1` [CBK265427], the “% of control remaining” value stood at 101.763.
Consider `Cc1cc2ccccc2n2c(=O)n(CC(=O)N3CCCC3)nc12` [CBK283880], for which the “% of control remaining” value worked out at 71.2239.
Consider `NC(=O)CO[C@@H]1CO[C@H]2[C@@H]1OC[C@@H]2NCc1ccccc1` [CBK289479], for which the “% of control remaining” value is 81.0999.
For `CC(=O)c1ccc(C(=O)Nc2nc3c(s2)COc2ccccc2-3)cc1` [CBK287363], the “% of control remaining” value was 68.4039.
Regarding `O=c1[nH]nc2c3ccc(Cl)cc3ncn12` [CBK283988], the “% of control remaining” value stood at 56.3051.
As for `O=C(O)c1ccc(OCCNS(=O)(=O)c2ccc3oc4ccccc4c3c2)cc1` [CBK299797], the “% of control remaining” value worked out at 99.1341.
Consider `Cc1ccccc1C(NC(=O)C1CCN(C(=O)N(C)c2ccccc2)CC1)c1ccccn1` (stereo not drawn) [CBK059721], for which the “% of control remaining” value was determined as 68.6044.
The figure for `COc1ccc(-c2cncc(C3CN(Cc4ccc(C)cc4OC)CCO3)n2)cc1` (stereo not drawn) [CBK286100] is 90.6805; for `O=C(CCCc1ccccn1)N(Cc1ccccn1)C1CCCC1` [CBK282033] it is 90.1082; for `CCN(CC)C(=O)CN1CCCN(c2nccc(OCCN3CCOCC3)n2)CC1` [CBK084094] it is 83.647.
The figure for `CC1CN(C)C(C)CC1OC(=O)C(c1ccccc1)c1ccccc1` (stereo not drawn) [CBK087393] is 89.5528; for `COc1ccc(Cn2nc(NC(=O)Nc3ccc(N(C)C)cc3)c3ccccc32)cc1` [CBK048529] it is 93.5312; for `CCOCCN1CCC(C(=O)NC(c2ccc(F)cc2)c2nc(OC)cc(OC)n2)CC1` (stereo not drawn) [CBK148087] it is 109.065.
`Cc1ccccc1CSc1cccc(F)c1` [CBK002913]: the “% of control remaining” value is 52.151.
On to `O=C(c1cccc(Cl)c1)N1CCC(O)(c2cccnc2)CC1` [CBK283553], for which the “% of control remaining” value worked out at 95.8738.
Take `CC(C)C(=O)N1CC2(CCN(CCCCC3NC(=O)NC3=O)CC2)c2ccccc21` (stereo not drawn) [CBK131471]: the “% of control remaining” value is given as 89.1791.
Turning to `O=c1[nH]c(=O)c2ccn([C@H]3C[C@@H](O)[C@@H](CO)O3)c2[nH]1` [CBK201331], the “% of control remaining” value is 82.1034.
For `CSc1nsc(SCC(=O)N2CCN(C(c3ccccc3)c3ccccc3)CC2)n1` [CBK268071], the “% of control remaining” value is on record as 88.3003.
For `CC(C)CNc1ccc(-c2cccc(N(C)C)c2)cn1` [CBK037603] the value was 60.467; for `O=C(Cc1ccccc1)Nc1nc(OCC(F)(F)F)cnc1-c1ccsc1` [CBK145298], 90.056; for `Brc1ccc(C2(c3nnc(C4CC4)o3)CCOCC2)cc1` [CBK305498], 92.9859.
As to `CCc1nc2c(OCCOc3ccc(F)cc3)cccn2c1N(C)C(=O)c1ccncc1` [CBK147472], the “% of control remaining” value came to 120.514.
For `O=C1CCN([C@H]2C[C@@H](O)[C@@H](CO)O2)C(=O)N1` [CBK201288] the value was 96.5134.
As for `COc1cc(F)cc(OC2CCNCC2)c1NC(=O)c1cnccn1` [CBK050296T], the “% of control remaining” value was found to be 101.455.
As to `CCCCOc1nccnc1-c1ccsc1` [CBK106778], the “% of control remaining” value came out at 95.9137.
On to `COc1ccc(-c2ccc(/C=N/NC(=O)c3ccncc3)o2)c([N+](=O)[O-])c1` [CBK262156], for which the “% of control remaining” value is listed as 94.8273.
Turning to `COc1ccc(OC)c(NC(=O)COc2ccc(C(C)C)cc2)c1` [CBK263498], the “% of control remaining” value amounted to 90.1626.
For the compound `CCN(CC)C(=O)CN1CCC(Oc2cncc(Oc3ccc(OC)c(OC)c3)n2)C1` (stereo not drawn) [CBK084404], the “% of control remaining” value turned out to be 89.0599.
The figure for `O=S(=O)(O)CCCSCCCS(=O)(=O)O` [CBK278307N] is 106.706; for `O=C(OCCC1SC(NC2CC3C=CC2C3)=NC1=O)c1cc(C(F)(F)F)ccc1C(F)(F)F` (stereo not drawn) [CBK200058T] it is 99.018; for `Cc1ccccc1NC(=O)NCc1ccccc1` [CBK105833] it is 35.6995.
As for `COc1ccc(-c2nnc(N)[nH]2)cc1` [CBK028843], the “% of control remaining” value worked out at 89.2657.
Take `O=C(c1cccc2ncccc12)N1CCC(c2ccncc2)CC1` [CBK283798]: the “% of control remaining” value amounted to 75.9231.
Regarding `O=C(CN1CCC(c2ccccc2F)CC1)N1CCOCC1` [CBK283548], the “% of control remaining” value turned out to be 85.5062.
In the case of `CC(=O)c1ccc(-c2ccc3ccc(N)nc3n2)cc1` [CBK061862], the “% of control remaining” value is listed as 89.2108.
Turning to `COc1cc(F)ccc1-c1cnc(N)c2ncccc12` [CBK067585], the “% of control remaining” value is given as 70.3806.
Take `CCc1c(C)nc2ccc(NC(C)=O)cc2c1SCCC(=O)O` [CBK159465T]: the “% of control remaining” value was 105.721.
Turning to `COc1ccc(-c2nnc(SC(C)c3nnc(-c4ccccc4)o3)n2CC(C)C)cc1` (stereo not drawn) [CBK297108], the “% of control remaining” value is 76.4492.
Regarding `O=C(c1ccco1)N1CCC[C@@H]1Cn1c(=O)oc2ccccc21` [CBK284538], the “% of control remaining” value stood at 110.901.
Regarding `O=S(=O)(Cc1ccccc1)Nc1nnc(C(F)(F)F)s1` [CBK045539], the “% of control remaining” value is on record as 85.8852.
The figure for `Cn1cc(CN2CCCN(C(=O)CCCc3ccccn3)CC2)cn1` [CBK305347] is 94.2362.
